Assay results: the supplement of paper PMC8728848
This is one part of the list.

What was measured:
Test in all cases: glycan array binding signal (z-score within array); higher = stronger binding
Conditions in all cases: glycan notation: IUPAC condensed, linker removed
[1] = target: Gal(b1-4)GlcNAc(b1-3)Gal(b1-4)GlcNAc(b1-2)[Gal(b1-4)GlcNAc(b1-3)Gal(b1-4)GlcNAc(b1-6)]Man(a1-6)[Gal(b1-4)GlcNAc(b1-3)Gal(b1-4)GlcNAc(b1-2)Man(a1-3)]Man(b1-4)GlcNAc(b1-4)GlcNAc
Procedure, shortened: (§1)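 Arrays were curated from the Consortium for Functional Glycomics database, 3228 in total, and kept only where the protein sequence was available. Binding is expressed as a within-array Z-score. This score was averaged across arrays of the same protein sequence at different concentrations or buffers and across linkers, and negative values can be read as non-binding.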

[2] = target: Gal(b1-4)GlcNAc(b1-3)Gal(b1-4)GlcNAc(b1-2)[Gal(b1-4)GlcNAc(b1-3)Gal(b1-4)GlcNAc(b1-6)]Man(a1-6)[Gal(b1-4)GlcNAc(b1-3)Gal(b1-4)GlcNAc(b1-2)Man(a1-3)]Man(b1-4)GlcNAc(b1-4)[Fuc(a1-6)]GlcNAc
Procedure, shortened: as §1

[3] = target: Gal(b1-4)GlcNAc(b1-3)Gal(b1-4)GlcNAc(b1-3)Gal(b1-4)GlcNAc
Procedure, shortened: as §1

[4] = target: Gal(b1-4)GlcNAc(b1-3)Gal(b1-4)GlcNAc(b1-3)Gal(b1-4)GlcNAc(b1-2)Man(a1-3)[Gal(b1-4)GlcNAc(b1-3)Gal(b1-4)GlcNAc(b1-3)Gal(b1-4)GlcNAc(b1-2)Man(a1-6)]Man(b1-4)GlcNAc(b1-4)GlcNAc
Procedure, shortened: as §1

[5] = target: Gal(b1-4)GlcNAc(b1-3)Gal(b1-4)GlcNAc(b1-3)Gal(b1-4)GlcNAc(b1-2)Man(a1-3)[Gal(b1-4)GlcNAc(b1-3)Gal(b1-4)GlcNAc(b1-3)Gal(b1-4)GlcNAc(b1-2)Man(a1-6)]Man(b1-4)GlcNAc(b1-4)[Fuc(a1-6)]GlcNAc
Procedure, shortened: as §1

[6] = target: Gal(b1-4)GlcNAc(b1-3)Gal(b1-4)GlcNAc(b1-3)Gal(b1-4)GlcNAc(b1-2)[Gal(b1-4)GlcNAc(b1-3)Gal(b1-4)GlcNAc(b1-3)Gal(b1-4)GlcNAc(b1-6)]Man(a1-6)[Gal(b1-4)GlcNAc(b1-3)Gal(b1-4)GlcNAc(b1-3)Gal(b1-4)GlcNAc(b1-2)Man(a1-3)]Man(b1-4)GlcNAc(b1-4)[Fuc(a1-6)]GlcNAc
Procedure, shortened: as §1

[7] = target: Gal(b1-4)GlcNAc(b1-3)Gal(b1-4)GlcNAc(b1-3)Gal(b1-4)GlcNAc(b1-3)Gal(b1-4)GlcNAc(b1-2)Man(a1-3)[Gal(b1-4)GlcNAc(b1-3)Gal(b1-4)GlcNAc(b1-3)Gal(b1-4)GlcNAc(b1-3)Gal(b1-4)GlcNAc(b1-2)Man(a1-6)]Man(b1-4)GlcNAc(b1-4)GlcNAc
Procedure, shortened: as §1

[8] = target: Gal(b1-4)GlcNAc(b1-3)Gal(b1-4)GlcNAc(b1-3)Gal(b1-4)GlcNAc(b1-3)Gal(b1-4)GlcNAc(b1-2)Man(a1-3)[Gal(b1-4)GlcNAc(b1-3)Gal(b1-4)GlcNAc(b1-3)Gal(b1-4)GlcNAc(b1-3)Gal(b1-4)GlcNAc(b1-2)Man(a1-6)]Man(b1-4)GlcNAc(b1-4)[Fuc(a1-6)]GlcNAc
Procedure, shortened: as §1

[9] = target: Gal(b1-4)GlcNAc(b1-3)Gal(b1-4)GlcNAc(b1-3)Gal(b1-4)GlcNAc(b1-3)Gal(b1-4)GlcNAc(b1-2)[Gal(b1-4)GlcNAc(b1-3)Gal(b1-4)GlcNAc(b1-3)Gal(b1-4)GlcNAc(b1-3)Gal(b1-4)GlcNAc(b1-6)]Man(a1-6)[Gal(b1-4)GlcNAc(b1-3)Gal(b1-4)GlcNAc(b1-3)Gal(b1-4)GlcNAc(b1-3)Gal(b1-4)GlcNAc(b1-2)Man(a1-3)]Man(b1-4)GlcNAc(b1-4)[Fuc(a1-6)]GlcNAc
Procedure, shortened: as §1

[10] = target: Gal(b1-4)GlcNAc(b1-3)Gal(b1-4)GlcNAc(b1-3)Gal(b1-4)GlcNAc(b1-3)Gal(b1-4)GlcNAc(b1-3)Gal(b1-4)GlcNAc(b1-2)Man(a1-3)[Gal(b1-4)GlcNAc(b1-3)Gal(b1-4)GlcNAc(b1-3)Gal(b1-4)GlcNAc(b1-3)Gal(b1-4)GlcNAc(b1-3)Gal(b1-4)GlcNAc(b1-2)Man(a1-6)]Man(b1-4)GlcNAc(b1-4)GlcNAc
Procedure, shortened: as §1

[11] = target: Gal(b1-4)GlcNAc(b1-3)Gal(b1-4)GlcNAc(b1-3)Gal(b1-4)GlcNAc(b1-3)Gal(b1-4)GlcNAc(b1-3)Gal(b1-4)GlcNAc(b1-2)Man(a1-3)[Gal(b1-4)GlcNAc(b1-3)Gal(b1-4)GlcNAc(b1-3)Gal(b1-4)GlcNAc(b1-3)Gal(b1-4)GlcNAc(b1-3)Gal(b1-4)GlcNAc(b1-2)Man(a1-6)]Man(b1-4)GlcNAc(b1-4)[Fuc(a1-6)]GlcNAc
Procedure, shortened: as §1

[12] = target: Gal(b1-4)GlcNAc(b1-3)Gal(b1-4)GlcNAc(b1-3)Gal(b1-4)GlcNAc(b1-3)Gal(b1-4)GlcNAc(b1-3)Gal(b1-4)GlcNAc(b1-2)[Gal(b1-4)GlcNAc(b1-3)Gal(b1-4)GlcNAc(b1-3)Gal(b1-4)GlcNAc(b1-3)Gal(b1-4)GlcNAc(b1-3)Gal(b1-4)GlcNAc(b1-6)]Man(a1-6)[Gal(b1-4)GlcNAc(b1-3)Gal(b1-4)GlcNAc(b1-3)Gal(b1-4)GlcNAc(b1-3)Gal(b1-4)GlcNAc(b1-3)Gal(b1-4)GlcNAc(b1-2)Man(a1-3)]Man(b1-4)GlcNAc(b1-4)[Fuc(a1-6)]GlcNAc
Procedure, shortened: as §1

[13] = target: Gal(b1-4)GlcNAc(b1-3)Gal(b1-4)GlcNAc(b1-3)Gal(b1-4)GlcNAc(b1-3)Gal(b1-4)GlcNAc(b1-3)Gal(b1-4)GlcNAc(b1-3)Gal(b1-4)GlcNAc(b1-2)Man(a1-3)[Gal(b1-4)GlcNAc(b1-3)Gal(b1-4)GlcNAc(b1-3)Gal(b1-4)GlcNAc(b1-3)Gal(b1-4)GlcNAc(b1-3)Gal(b1-4)GlcNAc(b1-3)Gal(b1-4)GlcNAc(b1-2)Man(a1-6)]Man(b1-4)GlcNAc(b1-4)GlcNAc
Procedure, shortened: as §1

[14] = target: Gal(b1-4)GlcNAc(b1-3)Gal(b1-4)GlcNAc(b1-3)GalNAc
Procedure, shortened: as §1

[15] = target: Gal(b1-4)GlcNAc(b1-3)Gal(b1-4)GlcNAc(b1-3)[Gal(b1-4)GlcNAc(b1-3)Gal(b1-4)GlcNAc(b1-6)]GalNAc
Procedure, shortened: as §1

[16] = target: Gal(b1-4)GlcNAc(b1-3)Gal(b1-4)GlcNAc(b1-6)[Gal(b1-3)]GalNAc
Procedure, shortened: as §1

[17] = target: Gal(b1-4)GlcNAc(b1-3)Gal(b1-4)[Fuc(a1-3)]GlcNAc(b1-3)Gal(b1-4)[Fuc(a1-3)]GlcNAc
Procedure, shortened: as §1

[18] = target: Gal(b1-4)GlcNAc(b1-3)GalNAc
Procedure, shortened: as §1

[19] = target: Gal(b1-4)GlcNAc(b1-3)[Fuc(a1-3)GlcNAc(b1-6)]Gal(b1-4)Glc
Procedure, shortened: as §1

[20] = target: Gal(b1-4)GlcNAc(b1-3)[Gal(b1-4)GlcNAc(b1-6)]Gal(b1-4)GlcNAc
Procedure, shortened: as §1

[21] = target: Gal(b1-4)GlcNAc(b1-3)[GlcNAc(b1-6)]Gal(b1-4)GlcNAc
Procedure, shortened: as §1

[22] = target: Gal(b1-4)GlcNAc(b1-6)Gal(b1-4)GlcNAc
Procedure, shortened: as §1

[23] = target: Gal(b1-4)GlcNAc(b1-6)GalNAc
Procedure, shortened: as §1

[24] = target: Gal(b1-4)GlcNAc(b1-6)[Gal(b1-3)]GalNAc
Procedure, shortened: as §1

[25] = target: Gal(b1-4)GlcNAc(b1-6)[Gal(b1-4)GlcNAc(b1-3)]GalNAc
Procedure, shortened: as §1

Gal(b1-4)GlcNAc6P = target: Gal(b1-4)GlcNAc6P
Procedure, shortened: as §1

Gal(b1-6)Gal = target: Gal(b1-6)Gal
Procedure, shortened: as §1

Gal3S(b1-3)GalNAc = target: Gal3S(b1-3)GalNAc
Procedure, shortened: as §1

Gal3S(b1-3)GlcNAc = target: Gal3S(b1-3)GlcNAc
Procedure, shortened: as §1

[26] = target: Gal3S(b1-3)[Fuc(a1-4)]GlcNAc
Procedure, shortened: as §1

Gal3S(b1-4)Glc = target: Gal3S(b1-4)Glc
Procedure, shortened: as §1

Gal3S(b1-4)Glc6S = target: Gal3S(b1-4)Glc6S
Procedure, shortened: as §1

Gal3S(b1-4)GlcNAc = target: Gal3S(b1-4)GlcNAc
Procedure, shortened: as §1

[27] = target: Gal3S(b1-4)[Fuc(a1-3)]Glc6S
Procedure, shortened: as §1

[28] = target: Gal3S(b1-4)[Fuc(a1-3)]GlcNAc
Procedure, shortened: as §1

[29] = target: Gal3S(b1-4)[Fuc(a1-3)]GlcNAc6S
Procedure, shortened: as §1

Gal3S4S(b1-4)GlcNAc = target: Gal3S4S(b1-4)GlcNAc
Procedure, shortened: as §1

Gal3S6S(b1-4)GlcNAc = target: Gal3S6S(b1-4)GlcNAc
Procedure, shortened: as §1

Gal3S6S(b1-4)GlcNAc6S = target: Gal3S6S(b1-4)GlcNAc6S
Procedure, shortened: as §1

Gal4S(b1-4)GlcNAc = target: Gal4S(b1-4)GlcNAc
Procedure, shortened: as §1

Gal4S6S(b1-4)GlcNAc = target: Gal4S6S(b1-4)GlcNAc
Procedure, shortened: as §1

Gal6P(b1-4)GlcNAc = target: Gal6P(b1-4)GlcNAc
Procedure, shortened: as §1

Gal6S(b1-3)GlcNAc = target: Gal6S(b1-3)GlcNAc
Procedure, shortened: as §1

Gal6S(b1-3)GlcNAc6S = target: Gal6S(b1-3)GlcNAc6S
Procedure, shortened: as §1

Gal6S(b1-4)Glc = target: Gal6S(b1-4)Glc
Procedure, shortened: as §1

B1: CBM13 2a (Mycobacterium tuberculosum), P64849 (protein)
chain: DGPVQLKSRLGDVCLDAPSGSWFSPLVINPCNGTDFQRWNLTDDRQVESVAFPGECVNIGNALWARLQPCVNWISQHWTVQPDGLVKSDLDACLTVLGGPDPGTWVSTRWCDPNAPDQQWDSVPLEHHHHHH
With B1 the “glycan array binding signal (z-score)” value [1] was -0.296, the “glycan array binding signal (z-score)” value [2] was 0.055 and the “glycan array binding signal (z-score)” value [3] was -0.268. The “glycan array binding signal (z-score)” value [4] was 3.22, the “glycan array binding signal (z-score)” value [5] was 0.008 and the “glycan array binding signal (z-score)” value [6] was 0.084. The “glycan array binding signal (z-score)” value [7] was 0.015, the “glycan array binding signal (z-score)” value [8] was -0.079 and the “glycan array binding signal (z-score)” value [9] was 0.051. The “glycan array binding signal (z-score)” value [10] was -0.168, the “glycan array binding signal (z-score)” value [11] was -0.111 and the “glycan array binding signal (z-score)” value [12] was -0.002. For the same binder, the “glycan array binding signal (z-score)” value [13] was 0.008, the “glycan array binding signal (z-score)” value [14] was 6.08 and the “glycan array binding signal (z-score)” value [15] was 4.69. For the same binder, the “glycan array binding signal (z-score)” value [16] was 5.73, the “glycan array binding signal (z-score)” value [17] was -0.028 and the “glycan array binding signal (z-score)” value [18] was 0.021. For the same binder, the “glycan array binding signal (z-score)” value [19] was 0.636, the “glycan array binding signal (z-score)” value [20] was -0.327 and the “glycan array binding signal (z-score)” value [21] was -0.387. The “glycan array binding signal (z-score)” value [22] was -0.365, the “glycan array binding signal (z-score)” value [23] was -0.222 and the “glycan array binding signal (z-score)” value [24] was -0.238. The “glycan array binding signal (z-score)” value [25] was -0.187, the “glycan array binding signal (z-score)” value (Gal(b1-4)GlcNAc6P) was -0.288 and the “glycan array binding signal (z-score)” value (Gal(b1-6)Gal) was -0.005. The “glycan array binding signal (z-score)” value (Gal3S(b1-3)GalNAc) was -0.247, the “glycan array binding signal (z-score)” value (Gal3S(b1-3)GlcNAc) was -0.285 and the “glycan array binding signal (z-score)” value [26] was -0.215. The “glycan array binding signal (z-score)” value (Gal3S(b1-4)Glc) was -0.159, the “glycan array binding signal (z-score)” value (Gal3S(b1-4)Glc6S) was -0.241 and the “glycan array binding signal (z-score)” value (Gal3S(b1-4)GlcNAc) was -0.284. The “glycan array binding signal (z-score)” value [27] was 0.013, the “glycan array binding signal (z-score)” value [28] was -0.425 and the “glycan array binding signal (z-score)” value [29] was -0.272. The “glycan array binding signal (z-score)” value (Gal3S4S(b1-4)GlcNAc) was -0.265, the “glycan array binding signal (z-score)” value (Gal3S6S(b1-4)GlcNAc) was -0.326 and the “glycan array binding signal (z-score)” value (Gal3S6S(b1-4)GlcNAc6S) was -0.097. The “glycan array binding signal (z-score)” value (Gal4S(b1-4)GlcNAc) was -0.154, the “glycan array binding signal (z-score)” value (Gal4S6S(b1-4)GlcNAc) was -0.102 and the “glycan array binding signal (z-score)” value (Gal6P(b1-4)GlcNAc) was -0.708. The “glycan array binding signal (z-score)” value (Gal6S(b1-3)GlcNAc) was -0.188, the “glycan array binding signal (z-score)” value (Gal6S(b1-3)GlcNAc6S) was -0.399 and the “glycan array binding signal (z-score)” value (Gal6S(b1-4)Glc) was -0.159.
